PubChem BioAssay AID2060333 (Molecular Pharmacology Branch, DTP, NCI, 2025)
Not every entry of the source has a single result; some have several. Only these are listed. There may be further records. Values given together are repeated measurements across runs, samples, wells, individuals or studies. Marks such as (2×) say how often a value occurs here.

Tested on: 845751-090-R-J2-PDC tumor spheroid viability
Assay: Anticancer human tumor 845751-090-R-J2-PDC patient-derived head and neck squamous carcinoma cell line growth inhibition [IpAb]
Settings: spheroids with HUVEC and MSC; for viability, T/C: stronger effect = lower value
Source text: Combinatorial screen of targeted agents with ipatasertib and abemaciclib in multi-cell type tumor spheroids
A high-throughput screen of multi-cell type tumor spheroids was designed to identify active combinations of targeted small molecules and ipatasertib or abemaciclib. Complex spheroids include a stromal component modeled by human endothelial cells (HUVEC) and fibroblasts modeled by human mesenchymal stem cells (MSCs). The concentration ranges selected for each drug and investigational agent were based upon clinically achievable concentrations if the clinical Cmax of the agent was known.
Compounds. The drugs and investigational agents: ipatasertib (NSC767898), abemaciclib(NSC768073), selumetinib (NSC741078), trametinib (758246), adavosertib (NSC754352), everolimus (NSC733504), sapanisertib (NSC764658), vemurafenib (NSC761431), venetoclax (NSC766270), copanlisib (NSC809693), apelisib (NSC765974), palbociblib (NSC758247), vemurafenib (NSC761431), dabrafenib (NSC764134), ravoxertinib (NSC781343), BMS-387032 (NSC767048), sotorasib (NSC818433), talazoparib (NSC767125) and afursertib (NSC778305), were obtained from the National Cancer Institute (NCI) Developmental Therapeutics Program Chemical Repository. The FDA-approved anticancer drug set is available from the NCI Developmental Therapeutics Program. […] The stock solutions were prepared in dimethyl sulfoxide (DMSO, Sigma-Aldrich, St. Louis, MO, cat. D2650) at 800-fold the tested concentration and stored at -70 degrees C prior to their use. All drugs and investigational agents were tested over a range starting from a high concentration at or near the clinical Cmax and decreasing in half-log increments. If the clinical Cmax for an agent had not been determined, the highest concentration tested was 10 microM.
NCI60 Cell Culture. NCI60 cell lines were obtained from the NCI Developmental Therapeutics Program Tumor Repository. For each lot of cells, the Repository performed Applied Biosystems AmpFLSTR Identifiler testing with PCR amplification to confirm consistency with the published Identifier STR profile for each cell line. Cells were kept in continuous culture for no more than 20 passages. The optimal seeding densities for each of the cell lines at each time point assessed were determined prior to performing the concentration response studies. Briefly, the NCI60 human tumor lines were grown as monolayers in RPMI 1640 medium supplemented with 10% FBS and 2 mmol/L L-glutamine.
An additional 9 lines were from the NCI60 cell line panel including MDA-MB-231 breast carcinoma, MDA-MB-468 breast carcinoma, MCF7 breast carcinoma, Hs578T breast carcinoma, MALME-3M melanoma, SK-MEL-2 melanoma, SK-OV-3 ovarian carcinoma, DU-145 prostate carcinoma, PC-3 prostate carcinoma, all cell lines along with major genetic alterations are listed on Table 2. Pooled donor human umbilical vein endothelial cells (HUVEC, Lonza, cat. CC-2519) and human mesenchymal stem cells (hMSC, Lonza, cat. PT-2501) were purchased from Lonza (Walkersville, MD).
PDMR cell lines were grown in complete medium (DC medium): Dulbecco's modified Eagle's medium (DMEM)/F12 supplemented with 5% fetal bovine serum (FBS), 2 mM L-glutamine, 100 U/mL penicillin and 100 µg/ml streptomycin, 0.4 µg/ml hydrocortisone, 10 ng/ml epidermal growth factor (EGF) recombinant human protein, 24 µg/mL adenine, and 0.1 mg/mL primocin. During culture from frozen stock vials, PDMR cells were cultured in the same medium containing 10 µM Y-27632 (see Table 3). The PDCs were cultured in complete DMEM/F12 media without 10 microM Y-27632 dihydrochloride for at least two passages prior to the screen. The pooled donor HUVEC and hMSC were cultured in endothelial cell growth medium 2 (PromoCell, Heidelberg, Germany, cat. C-22011) and mesenchymal stem cell growth medium 2 (PromoCell, cat. C-28009), respectively. For all experiments, HUVEC and hMSC were used at passages </=5.
[…]
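Note: spheroids exposed to compounds for 7 days before readout.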
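Throughout, for viability, T/C: CTG3D luminescence normalised so that 100% = DMSO vehicle control.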

Compound | viability, T/C (compound alone 0.1 µM) | viability, T/C (compound alone 0.316 µM) | IC50 (compound alone, run of 05/18/2021) | viability, T/C (compound alone 0.01 µM) | viability, T/C (compound alone 0.0316 µM) | viability, T/C (compound alone 1 µM)
CC(C)NCC(C(=O)N1CCN(c2ncnc3c2C(C)CC3O)CC1)c1ccc(Cl)cc1 (stereo not drawn) | 55, 75.3, 46.4, 89.7, 49.8, 46.7, 47.4, 43.1, 61.4, 61.1, 39.5, 76.5, 57.4% | 28.1, 27.3, 32.5, 31.1, 35.4, 26.8, 26.6, 29.3, 34.4, 39.8, 24.1, 55.4, 22.9% | 122 nM, 199 nM, < 100 nM, 225 nM, 179 nM, 223 nM, 411 nM, 128 nM | – | – | –
CCN1CCN(Cc2ccc(Nc3ncc(F)c(-c4cc(F)c5nc(C)n(C(C)C)c5c4)n3)nc2)CC1 | 80.5 (2×), 71.4, 69, 79, 57.5, 57.3, 80.8, 70.8, 60.4, 63.9, 86.2, 56.2% | 54.9, 60 (2×), 43.7, 85, 57.3, 85.8, 75, 63.6, 53.5, 72.9, 61, 58% | – | 85.4, 80.7, 83.9, 86.8, 87.7, 80.2, 94, 61.3, 94.3, 118, 86.1, 89.8, 67.7% | 79.5, 71.1, 71.6, 71.8, 56, 62.8, 83.9 (2×), 70.5, 75.4, 74.5, 63.6, 68.7% | 75.7, 82.1, 65.3, 107 (2×), 78.9, 85.9, 98.1, 78.4, 63.5, 91.9, 94.4, 76.6%
